# Data reported in a collection of fitness landscapes (doi:10.1016/j.celrep.2020.107928).
# Over roughly 81,000 sequences, “one-hybrid fitness for binding NBS DNA” has its median near -0.1; the highest 2% begin near 0.36. The list shows a part of the results.
# B1: Caulobacter ParB omega fusion; a variant is named by its letters at X, in order, B8GW30 (parent)
# chain: MESVVVGEPGMSEGRRGLGRGLSALLGEVDAAPAQAPGEQLGGSREAPIEILQRNPDQPRRTFREEDLEDLSNSIREKGVLQPILVRPSPDTAGEYQIVAGERAWRAAQRAGLKTVPIMVRELDDLAVLEIGIIENVQRADLNVLEEALSYKVLMEKFERTQENIAQTIGKSXSHVANXMRLLXLPDEVQSYLVSGELTAXHARAIAAAADPVALAKQIIEGGLSVRETEALARKAPNLSAGKSKGGRPPRVKDTDTQALESDLSSVLGLDVSIDHRGSTGTLTITYATLEQLDDLCNRLTRGI
# Variants of: B1
# Experiment: one-hybrid fitness for binding NBS DNA (the Noc-binding site; scaled: cognate 1, non-cognate 0); higher = stronger binding
# Settings: with NBS DNA site
# Outline: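 Fitness here means the log change in variant-to-wild-type read ratio between plasmids sequenced before and after selection. That scale was set so cognate equals 1 and non-cognate equals 0. The selection was a bacterial one-hybrid screen of Caulobacter ParB libraries, four specificity codons randomised, in E. coli USO carrying a HIS3 reporter with the site 19 bp from the promoter, grown 48 hours at 37°C on M9-minus-histidine with 0.1 mM IPTG and 5 mM 3-AT.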
row,Variant,one-hybrid fitness for binding NBS DNA
1,FFNG,≤ 0.2
2,PAKL,≤ 0.2
3,DYQS,≤ 0.2
4,RLRR,0.673
5,RGGI,≤ 0.2
6,QTGK,0.226
7,KRLT,0.469
8,CRRK,≤ 0.2
9,AWGC,≤ 0.2
10,QRLL,≤ 0.2
11,DVTE,≤ 0.2
12,ALVR,≤ 0.2
13,TNGD,≤ 0.2
14,NFRN,≤ 0.2
15,GSDT,≤ 0.2
16,DSRR,≤ 0.2
17,TPDL,≤ 0.2
18,PAHD,≤ 0.2
19,ALFN,≤ 0.2
20,QVIH,≤ 0.2
21,SQTY,≤ 0.2
22,QPMT,≤ 0.2
23,WAHD,≤ 0.2
24,PRCH,≤ 0.2
25,NLQI,≤ 0.2

row,Variant,one-hybrid fitness for binding NBS DNA
1,ISQE,≤ 0.2
2,TVRM,≤ 0.2
3,MDME,≤ 0.2
4,RMCI,≤ 0.2
5,RSIN,≤ 0.2
6,ANHD,≤ 0.2
7,PVKN,≤ 0.2
8,CVNR,≤ 0.2
9,DMGM,≤ 0.2
10,VKRI,≤ 0.2
11,HTYG,≤ 0.2
12,LRWN,≤ 0.2
13,QPHV,≤ 0.2
14,FPIE,≤ 0.2
15,DQPH,≤ 0.2
16,WFVC,≤ 0.2
17,RNYV,≤ 0.2
18,YSNK,≤ 0.2
19,CVDN,≤ 0.2
20,MYLR,≤ 0.2
21,CPPW,≤ 0.2
22,NMHI,≤ 0.2
23,AKPT,≤ 0.2
24,CNVS,≤ 0.2
25,QMRS,0.691

row,Variant,one-hybrid fitness for binding NBS DNA
1,SHVF,≤ 0.2
2,AHSV,≤ 0.2
3,RMTE,≤ 0.2
4,RWMY,≤ 0.2
5,EYYV,≤ 0.2
6,PLFG,≤ 0.2
7,ITAT,≤ 0.2
8,ATTN,≤ 0.2
9,RFSP,≤ 0.2
10,GYLD,≤ 0.2
11,QVDA,≤ 0.2
12,DTKA,≤ 0.2
13,VWDM,≤ 0.2
14,MIIC,≤ 0.2
15,AVMH,≤ 0.2
16,MCMN,≤ 0.2
17,VAAW,≤ 0.2
18,CVCG,≤ 0.2
19,QISH,≤ 0.2
20,PKHI,≤ 0.2
21,IPRY,≤ 0.2
22,VDRS,≤ 0.2
23,AAYA,≤ 0.2
24,FLDY,≤ 0.2
25,FLIG,≤ 0.2

row,Variant,one-hybrid fitness for binding NBS DNA
1,RAHW,≤ 0.2
2,IMNL,≤ 0.2
3,HNYQ,≤ 0.2
4,HDND,≤ 0.2
5,RDWG,≤ 0.2
6,HKLC,≤ 0.2
7,HTIP,≤ 0.2
8,LSKY,≤ 0.2
9,PPLV,≤ 0.2
10,LNPN,≤ 0.2
11,QEKL,≤ 0.2
12,ACPC,≤ 0.2
13,AGSM,≤ 0.2
14,YGCR,≤ 0.2
15,QFYL,≤ 0.2
16,PSPV,≤ 0.2
17,ADHF,≤ 0.2
18,RFKV,≤ 0.2
19,QTIE,≤ 0.2
20,CLFS,≤ 0.2
21,KQNG,≤ 0.2
22,KHNA,≤ 0.2
23,AGNT,≤ 0.2
24,WWAC,≤ 0.2
25,DNMR,≤ 0.2

row,Variant,one-hybrid fitness for binding NBS DNA
1,SRLS,≤ 0.2
2,QSIR,0.336
3,AAHE,≤ 0.2
4,TQQR,≤ 0.2
5,VTVG,≤ 0.2
6,CRCR,≤ 0.2
7,GTTP,≤ 0.2
8,NQMT,≤ 0.2
9,SDLQ,≤ 0.2
10,DTRR,0.303
11,PCPI,≤ 0.2
12,AWPL,≤ 0.2
13,KSSV,≤ 0.2
14,LARI,≤ 0.2
15,PIGG,≤ 0.2
16,RMKR,0.738
17,QDRG,≤ 0.2
18,SARD,≤ 0.2
19,SLWT,≤ 0.2
20,DRQT,≤ 0.2
21,CPVR,≤ 0.2
22,DAES,≤ 0.2
23,QTWM,≤ 0.2
24,MTYC,≤ 0.2
25,QMWR,0.403

row,Variant,one-hybrid fitness for binding NBS DNA
1,RVSG,≤ 0.2
2,PRYI,≤ 0.2
3,QCSR,0.614
4,KLIG,≤ 0.2
5,KRSE,≤ 0.2
6,KQYR,≤ 0.2
7,KTDD,≤ 0.2
8,SPND,≤ 0.2
9,TFNR,≤ 0.2
10,DVET,≤ 0.2
11,SPCE,≤ 0.2
12,QNLR,≤ 0.2
13,ELKS,≤ 0.2
14,QVNA,≤ 0.2
15,NQVG,≤ 0.2
16,MVSW,≤ 0.2
17,TVWY,≤ 0.2
18,SNCR,≤ 0.2
19,TPIV,≤ 0.2
20,NPQP,≤ 0.2
21,SLET,≤ 0.2
22,CHSC,≤ 0.2
23,VKKR,0.237
24,QERW,≤ 0.2
25,QEDR,≤ 0.2

row,Variant,one-hybrid fitness for binding NBS DNA
1,HVEY,≤ 0.2
2,QKYF,≤ 0.2
3,CHIA,≤ 0.2
4,PHWV,≤ 0.2
5,MRLC,≤ 0.2
6,KYRG,≤ 0.2
7,AVTV,≤ 0.2
8,KAVT,≤ 0.2
9,DYWT,≤ 0.2
10,GMPD,≤ 0.2
11,SVNI,≤ 0.2
12,QHLT,0.337
13,ISFE,≤ 0.2
14,GVQL,≤ 0.2
15,FTSW,≤ 0.2
16,TQAT,≤ 0.2
17,EASD,≤ 0.2
18,CDAE,≤ 0.2
19,HSLS,≤ 0.2
20,NFST,≤ 0.2
21,ILRS,≤ 0.2
22,QLNI,≤ 0.2
23,RHCM,≤ 0.2
24,QKLY,≤ 0.2
25,LDPL,≤ 0.2

row,Variant,one-hybrid fitness for binding NBS DNA
1,SAGY,≤ 0.2
2,ILFC,≤ 0.2
3,HIRE,≤ 0.2
4,TFQF,≤ 0.2
5,VKVG,≤ 0.2
6,HPYS,≤ 0.2
7,YWNT,≤ 0.2
8,KKIR,≤ 0.2
9,TLFE,≤ 0.2
10,QEWC,≤ 0.2
11,KYGR,≤ 0.2
12,SRWC,≤ 0.2
13,WKFI,≤ 0.2
14,KRFI,≤ 0.2
15,LHET,≤ 0.2
16,LGRI,≤ 0.2
17,SMMW,≤ 0.2
18,SLGA,≤ 0.2
19,LVNS,≤ 0.2
20,QYPM,≤ 0.2
